Among all 310,000 compounds or so, about 11,000 (3.5%) were called active. Inconclusive means that the source gave no clear call. Such entries were picked first, then a sample of the others. Calls follow the shape of the dose curve; as a rule, active = well fitted inhibition curve with a large enough effect; inconclusive = small, poorly fitted or top-dose-only effect, or effect the other way; inactive = flat fitted curve, though single readings scatter. No potency is given beside an inconclusive call; the fits are too rough.
Assay: VP16 counterscreen qHTS for inhibitors of ROR gamma transcriptional activity;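 also: Gal4-VP16 expression switched on by copper sulfate through the metallothionein promoter; nearly all actives have a fitted effect of over 50% in size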
Conditions: Drosophila S2 Gal4-VP16 UAS-luciferase, luminescence, 20 h; activity, negative = inhibition: at 53.6 µM (top of the series)
% is scaled to controls: 0 for no effect and ±100 for the full control effect; potency is read from the fitted curve at half-maximal effect; tags tell the direction and shape of the fitted curve.

Compound	Potency	activity, negative = inhibition
Cc1ccc(C)c(CNC(=O)Nc2ccccc2)c1	inconclusive [inhibitor, single point]	
Cn1c(SCC(=O)N/N=C/C=C\c2ccccc2[N+](=O)[O-])nc2ccccc21	inconclusive [inhibitor, single point]	
CC(=O)c1c(C)[nH]c(C(=O)Nc2cccc(S(=O)(=O)N(C)C)c2)c1C	inconclusive [activator, single point]	
C/C(=C\C(=O)c1ccc(Br)cc1)Nc1ccc(Cl)cc1	active: 11.2 µM	
COc1cc(CC(=O)Nc2cccc(SC)c2)cc(OC)c1OC	inconclusive [inhibitor, single point]	
C=CCNC(=O)/C(C#N)=C/c1cc(Br)ccc1OC	inconclusive [inhibitor, single point]	
Cc1ccc(C(=O)c2oc3ccc(Cl)cc3c2NC(=O)CN2CCN(C)CC2)cc1	inconclusive [inhibitor, single point]	
Cc1ccc(OCc2nnc(SCc3nc4ccccc4[nH]3)n2Cc2ccco2)cc1	inconclusive [inhibitor, single point]	
COC(=O)CSc1nnc(NC(=O)c2ccc3c(c2)OCO3)s1	inconclusive [inhibitor, partial curve]	
C[C@H]1[C@H](C)CC[C@]2(C(=O)O)CC[C@]3(C)C(=CC[C@@H]4[C@@]5(C)C[C@@H](O)[C@H](O)C(C)(C)[C@@H]5CC[C@]43C)[C@H]12	inconclusive [inhibitor, single point]	
CCSc1ccccc1C(=O)NC1CCCCC1		inactive: -9.04%
CCC(C(=O)NC1CCCC1)N(C(=O)Cn1nnc(-c2ccc(C)o2)n1)c1ccc(F)cc1 (stereo unspecified)	inconclusive [inhibitor, partial curve]	
O=C(O)Cc1ccc(NC(=O)c2cccs2)cc1	inconclusive [inhibitor, single point]	
Cc1ccc(NC(=O)CSc2nnc(NC(=O)c3ccc(S(=O)(=O)N4CCOCC4)cc3)s2)cc1	active: 31.6 µM	
COc1cccc(C2CC(C(F)(F)F)n3ncc(C(=O)O)c3N2)c1 (stereo unspecified)	inconclusive [inhibitor, single point]	
O=C(COc1ccc(Cl)cc1Cl)NNC(=S)NCc1ccco1	inconclusive [inhibitor, partial curve]	
Clc1ccc(OCCCN2CCc3ccccc3C2)c(Br)c1	inconclusive [inhibitor, single point]	
CCC1CC=CC2C1C(=O)N(Cc1ccccc1)C2c1cccc([N+](=O)[O-])c1 (stereo unspecified)	inconclusive [inhibitor, single point]	
CC(NC(=O)c1ccc(Br)cc1)c1ccc2c(c1)CCCC2 (stereo unspecified)	inconclusive [inhibitor, single point]	
COC(=O)c1c(N2C(=O)Nc3ccccc3N2O)sc2c1CCCC2	inconclusive [activator, partial curve]	
CC(C)(C)c1ccc(C(=O)NCCc2ccccc2)cc1	inconclusive [inhibitor, single point]	
CCOc1ccccc1NC(=O)Cn1nnc(C(=O)NCc2ccco2)c1N		inactive: -4.27%
COC(=O)c1ccccc1NC(=S)NC(=O)c1ccc(C)cc1	inconclusive [inhibitor, single point]	

Compound	Potency	activity, negative = inhibition
CC(C)C1COC(c2cccc3ccccc23)=N1 (stereo unspecified)	inconclusive [inhibitor, single point]	
CC(C)C(=O)Nc1ccc(C(=O)NNC(=O)c2cccs2)cc1	inconclusive [inhibitor, partial curve]	
CCN1CCc2nc(NC(=O)c3ccccc3)sc2C1	active: 11.2 µM	
CC1CCCN(S(=O)(=O)c2ccc(CN3C(=O)c4cccnc4C3=O)cc2)C1 (stereo unspecified)		inactive: 0.64%
CN1CCc2c(sc(NC(=O)c3cc4cc([N+](=O)[O-])ccc4s3)c2C(N)=O)C1	active: 3.16 µM	
NNC(=O)C1CC1c1ccccc1 (stereo unspecified)	inconclusive [inhibitor, single point]	
O=C(Nc1cccc(C(F)(F)F)c1)c1cccnc1N1CCOCC1		inactive: -15.3%
Cc1ccc(C(=O)N2CCN(c3ncccn3)CC2)cc1S(=O)(=O)N1CCCCC1		inactive: -8.94%
CCCCn1nc(C(=O)Nc2cc(S(=O)(=O)N(C)C)ccc2C)c2ccccc2c1=O		inactive: -2.24%
CC(=O)Nc1ccc(-c2cc(C(=O)O)c3ccccc3n2)cc1	inconclusive [inhibitor, single point]	
COc1ccccc1/C=C/C(=O)Nc1cccc(S(=O)(=O)NC2=NCCCCC2)c1		inactive: -10.6%
O=C(Nc1cnc2sccn2c1=O)c1ccccc1Cl	inconclusive [inhibitor, full curve]	
S=C(NCCC(c1ccccc1)c1ccccc1)Nc1ccccc1Cl	inconclusive [inhibitor, single point]	
Cn1c(CNS(=O)(=O)c2ccc(F)cc2)n[nH]c1=S		inactive: -7.19%
CC1(C)CC(NC(=S)NC2CC2)CC(C)(C)N1		inactive: -19.5%
N#CC1=C(SCC(=O)c2cc3ccccc3oc2=O)NC(=O)C(C#N)C12CCCC2 (stereo unspecified)		inactive: 3.5% [at 0.365 µM]
COc1ccc(N2CCN(C(=O)c3ccc(C)c(Cl)c3)CC2)cc1	inconclusive [activator, single point]	
CCN(CC)CCN(Cc1cc2cc(C)cc(C)c2[nH]c1=O)C(=S)NCc1ccco1	inconclusive [activator, single point]	
Cc1cc(=O)n(C)c(=O)n1CCCCOc1ccc([N+](=O)[O-])cc1	inconclusive [inhibitor, single point]	
O=C(CCCOc1ccc(Cl)cc1Cl)Nc1ccncc1	inconclusive [inhibitor, single point]	
COc1cccc(-c2ccc3ncnc(N4CCOCC4)c3c2)c1		inactive: -3.38%
O=c1oc2ccccc2nc1/C=C(\O)c1ccccc1		inactive: 2.87%
O=C(CC1Nc2cccc3cccc(c23)NC1=O)Nc1ccccc1 (stereo unspecified)		inactive: 1.24%

— PubChem BioAssay AID2546 (National Center for Advancing Translational Sciences (NCATS), 2010)
